PMC5700166
The entries are a selection whose mix differs from that of the whole data set. The list includes weakly bound sequences.

Columns and labels:
Assay in all cases: protein-binding microarray (PBM)
Conditions in all cases: PBM: ~300 nM protein, 6 mM HEPES pH 7.8, 80 mM KCl, 0.5 mM EDTA, 0.5 mM EGTA, 6% glycerol, 35 ng/ul poly-dIdC, 1% milk, 1 h, room temperature; Ap Aiptasia and Nv Nematostella (sea anemones) / Co Capsaspora / Aq Amphimedon (sponge) / Dm Drosophila / Hu human; RHD is the Rel homology domain; high values mean tight binding; most listed sequences are background and not binding sites; double strand, one strand shown
[1] = biological target: T1, GST-Ap-NF-kB RHD (UniProt A0A913YAJ5)
T1 sequence: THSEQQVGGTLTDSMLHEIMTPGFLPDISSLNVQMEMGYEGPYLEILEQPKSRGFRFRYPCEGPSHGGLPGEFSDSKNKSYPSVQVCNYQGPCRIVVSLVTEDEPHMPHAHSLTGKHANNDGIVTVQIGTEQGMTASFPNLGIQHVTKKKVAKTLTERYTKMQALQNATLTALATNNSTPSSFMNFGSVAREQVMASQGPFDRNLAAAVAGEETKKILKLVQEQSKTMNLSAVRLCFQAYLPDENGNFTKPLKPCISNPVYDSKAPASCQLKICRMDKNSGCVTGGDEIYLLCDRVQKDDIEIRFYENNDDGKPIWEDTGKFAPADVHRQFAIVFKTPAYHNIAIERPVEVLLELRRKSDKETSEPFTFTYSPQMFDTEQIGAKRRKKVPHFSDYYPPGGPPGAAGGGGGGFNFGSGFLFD

[2] = biological target: T2, GST-Nv-NF-kB (Cys allele) (UniProt E5G601)
T2 sequence: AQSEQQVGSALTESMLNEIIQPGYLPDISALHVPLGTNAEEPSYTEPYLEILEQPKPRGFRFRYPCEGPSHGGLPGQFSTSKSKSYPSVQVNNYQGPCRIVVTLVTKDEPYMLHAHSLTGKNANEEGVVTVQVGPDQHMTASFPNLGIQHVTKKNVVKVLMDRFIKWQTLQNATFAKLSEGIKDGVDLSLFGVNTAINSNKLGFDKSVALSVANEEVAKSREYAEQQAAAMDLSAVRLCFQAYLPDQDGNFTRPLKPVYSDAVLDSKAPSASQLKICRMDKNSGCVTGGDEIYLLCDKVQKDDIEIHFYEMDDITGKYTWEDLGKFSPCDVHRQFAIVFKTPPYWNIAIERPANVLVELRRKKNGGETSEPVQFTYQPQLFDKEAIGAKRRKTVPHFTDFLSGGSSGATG

[3] = biological target: T3, GST-Co-NF-kB (UniProt F1ARL5)
T3 sequence: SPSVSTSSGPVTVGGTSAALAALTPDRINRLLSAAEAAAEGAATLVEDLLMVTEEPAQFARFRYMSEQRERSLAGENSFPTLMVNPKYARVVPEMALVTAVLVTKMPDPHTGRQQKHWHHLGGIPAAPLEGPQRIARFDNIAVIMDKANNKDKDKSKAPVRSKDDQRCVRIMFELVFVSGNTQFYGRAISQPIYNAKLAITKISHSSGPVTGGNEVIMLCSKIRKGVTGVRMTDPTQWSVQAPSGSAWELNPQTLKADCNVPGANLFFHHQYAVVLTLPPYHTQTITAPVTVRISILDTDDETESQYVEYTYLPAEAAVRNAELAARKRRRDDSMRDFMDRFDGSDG

[4] = biological target: T4, GST-Dm-Relish (UniProt Q94527)
T4 sequence: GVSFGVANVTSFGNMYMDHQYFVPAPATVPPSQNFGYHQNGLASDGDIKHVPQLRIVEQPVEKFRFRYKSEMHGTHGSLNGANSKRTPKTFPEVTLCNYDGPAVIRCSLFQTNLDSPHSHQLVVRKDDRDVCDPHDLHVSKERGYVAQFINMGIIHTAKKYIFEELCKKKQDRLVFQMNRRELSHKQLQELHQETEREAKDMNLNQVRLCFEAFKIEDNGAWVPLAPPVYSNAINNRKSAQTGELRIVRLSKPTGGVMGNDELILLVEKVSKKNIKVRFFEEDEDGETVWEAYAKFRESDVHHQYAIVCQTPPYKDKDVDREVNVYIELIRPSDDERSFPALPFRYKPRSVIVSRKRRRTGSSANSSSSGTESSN

[5] = biological target: T5, GST-Aq-NF-kB (UniProt A9Y5G7)
T5 sequence: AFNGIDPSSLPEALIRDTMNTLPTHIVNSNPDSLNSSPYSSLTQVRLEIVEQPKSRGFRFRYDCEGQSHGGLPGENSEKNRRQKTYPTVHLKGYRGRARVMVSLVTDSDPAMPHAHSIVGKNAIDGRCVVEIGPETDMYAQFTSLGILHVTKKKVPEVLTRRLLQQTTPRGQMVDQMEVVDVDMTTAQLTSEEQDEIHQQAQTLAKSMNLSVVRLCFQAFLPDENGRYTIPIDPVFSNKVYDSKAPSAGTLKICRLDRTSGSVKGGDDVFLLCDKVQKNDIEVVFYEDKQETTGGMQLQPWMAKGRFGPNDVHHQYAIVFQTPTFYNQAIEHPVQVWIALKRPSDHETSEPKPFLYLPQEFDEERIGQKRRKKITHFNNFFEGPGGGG

Sequence | binding signal [1] | binding signal [2] | binding signal [3] | binding signal [4] | binding signal [5]
CCGATTAACATCAATCCTATCGATGATGTTAATCGGGTCTTGATTCGCTTGACGCTGCTG | -0.581 z-score | -0.726 z-score | -0.302 z-score | -0.555 z-score | -0.539 z-score
CCGATTAACATCAGTAATCAATTTGATGTTAATCGGGTCTTGATTCGCTTGACGCTGCTG | -0.9 z-score | 0.469 z-score | -0.303 z-score | -0.0731 z-score | -0.621 z-score
CCGATTAACATCAAGTACTGGATTGATGTTAATCGGGTCTTGATTCGCTTGACGCTGCTG | -0.565 z-score | 0.416 z-score | -0.339 z-score | 0.317 z-score | -0.389 z-score
CCGATTAACATCACAGTCCAAACTGATGTTAATCGGGTCTTGATTCGCTTGACGCTGCTG | -0.728 z-score | -0.785 z-score | -0.461 z-score | -0.395 z-score | -0.337 z-score
CCGATTAACATCAGAACGGATAATGATGTTAATCGGGTCTTGATTCGCTTGACGCTGCTG | -0.15 z-score | 0.0491 z-score | 0.274 z-score | -0.495 z-score | -0.287 z-score
CCGATTAACATCAAAGGGAATTCTGATGTTAATCGGGTCTTGATTCGCTTGACGCTGCTG | 4.72 z-score | 7.1 z-score | 2.97 z-score | 4.04 z-score | 5.65 z-score
CCGATTAACATCATGCATGGTCATGATGTTAATCGGGTCTTGATTCGCTTGACGCTGCTG | -0.962 z-score | -0.253 z-score | -0.402 z-score | -0.313 z-score | -0.514 z-score
CCGATTAACATCAATGATGTAATTGATGTTAATCGGGTCTTGATTCGCTTGACGCTGCTG | -0.923 z-score | -0.557 z-score | -0.904 z-score | 0.191 z-score | -0.365 z-score
CCGATTAACATCAACGTCATTGGTGATGTTAATCGGGTCTTGATTCGCTTGACGCTGCTG | 0.21 z-score | 0.212 z-score | 0.284 z-score | 0.307 z-score | -0.156 z-score
CCGATTAACATCAGCTCTAACTGTGATGTTAATCGGGTCTTGATTCGCTTGACGCTGCTG | -0.54 z-score | -0.368 z-score | -0.762 z-score | -0.159 z-score | -0.544 z-score
CCGATTAACATCAGGAACATTCCTGATGTTAATCGGGTCTTGATTCGCTTGACGCTGCTG | -0.737 z-score | -0.0817 z-score | -0.784 z-score | -0.256 z-score | 0.404 z-score
CCGATTAACATCAGACGAATGCCTGATGTTAATCGGGTCTTGATTCGCTTGACGCTGCTG | -1.28 z-score | -0.349 z-score | -1.66 z-score | -1.18 z-score | -0.601 z-score
CCGATTAACATCACCGCCACGCATGATGTTAATCGGGTCTTGATTCGCTTGACGCTGCTG | 0.94 z-score | -0.51 z-score | 0.066 z-score | 0.956 z-score | 0.327 z-score
CCGATTAACATCACGCGTTTTAGTGATGTTAATCGGGTCTTGATTCGCTTGACGCTGCTG | -0.569 z-score | -0.0559 z-score | -0.336 z-score | 0.762 z-score | -0.62 z-score
CCGATTAACATCAATCGGTAAGTTGATGTTAATCGGGTCTTGATTCGCTTGACGCTGCTG | -0.755 z-score | -0.132 z-score | -0.152 z-score | -0.329 z-score | -0.113 z-score
CCGATTAACATCAGTATACGACGTGATGTTAATCGGGTCTTGATTCGCTTGACGCTGCTG | -0.252 z-score | -1.02 z-score | -0.395 z-score | -0.776 z-score | -0.75 z-score
CCGATTAACATCAGGAATCCCCCTGATGTTAATCGGGTCTTGATTCGCTTGACGCTGCTG | 10.9 z-score | 10.2 z-score | 5.73 z-score | 10.2 z-score | 9.58 z-score
CCGATTAACATCAAAATTCCAAATGATGTTAATCGGGTCTTGATTCGCTTGACGCTGCTG | -0.395 z-score | 0.225 z-score | -0.149 z-score | 0.764 z-score | 0.548 z-score
CCGATTAACATCAGTCCAAGGCTTGATGTTAATCGGGTCTTGATTCGCTTGACGCTGCTG | -0.754 z-score | -1.18 z-score | -1.53 z-score | -1.21 z-score | -0.487 z-score
CCGATTAACATCACTGACGCAGTTGATGTTAATCGGGTCTTGATTCGCTTGACGCTGCTG | -0.937 z-score | -0.531 z-score | -1.29 z-score | -0.591 z-score | -0.588 z-score
CCGATTAACATCAACCTGATGGATGATGTTAATCGGGTCTTGATTCGCTTGACGCTGCTG | -0.126 z-score | 0.401 z-score | -0.882 z-score | -0.938 z-score | -0.442 z-score
CCGATTAACATCAGGAATACTCCTGATGTTAATCGGGTCTTGATTCGCTTGACGCTGCTG | -0.636 z-score | -0.0105 z-score | -0.449 z-score | -0.139 z-score | -0.22 z-score
CCGATTAACATCATCTGTTGTTTTGATGTTAATCGGGTCTTGATTCGCTTGACGCTGCTG | -0.0683 z-score | -0.3 z-score | 0.125 z-score | 0.271 z-score | -0.33 z-score
CCGATTAACATCAATTCATCAGTTGATGTTAATCGGGTCTTGATTCGCTTGACGCTGCTG | -0.85 z-score | -0.333 z-score | -0.0609 z-score | -0.758 z-score | -0.477 z-score
CCGATTAACATCATCGAGTATTGTGATGTTAATCGGGTCTTGATTCGCTTGACGCTGCTG | -0.591 z-score | -1.28 z-score | 0.311 z-score | -0.159 z-score | -0.194 z-score
